Some of the results follow. Repeats are few or missing, and single values can be far off.
Columns and labels:
Assay in all cases: cell count relative to DMSO control; melanoma cells; higher = more viable cells
Conditions in all cases: library dose: low library concentration; 72 h
WM115 = test system: WM115
WM1716 = test system: WM1716
WM1745 = test system: WM1745
WM3526 = test system: WM3526
WM3619 = test system: WM3619
WM451Lu = test system: WM451Lu
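Further: cell number obtained by counting DAPI-stained nuclei in high-throughput microscope images with image analysis software, screen run in 1,536-well plates.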

Row | Compound | cell count (WM115) | cell count (WM1716) | cell count (WM1745) | cell count (WM3526) | cell count (WM3619) | cell count (WM451Lu)
1 | Cc1cn(-c2cc(NC(=O)c3ccc(C)c(Nc4nccc(-c5cccnc5)n4)c3)cc(C(F)(F)F)c2)cn1 [nilotinib] + O=C(CCCCCCC(=O)Nc1ccccc1)NO [vorinostat] (first compound 0.2 µM, partner dose 0.08 µM) | 126% | 83.7% | 83.3% | 96.7% | 101% | 87.2%
2 | CC(C)C[C@H](NC(=O)[C@H](Cc1ccccc1)NC(=O)c1cnccn1)B(O)O [Bortezomib] + O=C(CCCCCCC(=O)Nc1ccccc1)NO [vorinostat] (first compound 0.001 µM, partner dose 0.08 µM) | 103% | 41.7% | 76.8% | 89.3% | 37.2% | 105%
3 | Cc1cc(Nc2cc(N3CCN(C)CC3)nc(/C=C/c3ccccc3)n2)n[nH]1 + CCc1ccc(CCOc2ccc(CC3SC(=O)NC3=O)cc2)nc1 [pioglitazone] (first compound 0.04 µM, partner dose 2 µM) | 97.2% | 101% | 90.1% | 99.6% | 113% | 96.8%
4 | COc1ccc(C2=N[C@@H](c3ccc(Cl)cc3)[C@@H](c3ccc(Cl)cc3)N2C(=O)N2CCNC(=O)C2)c(OC(C)C)c1 [Nutlin-3] + CCN(CC)CCCCNc1ncc2cc(-c3cc(OC)cc(OC)c3)c(NC(=O)NC(C)(C)C)nc2n1 [PD173074] (first compound 0.1 µM, partner dose 0.1 µM) | 79.8% | 90.3% | 89.3% | 100% | 87.2% | 89.4%
5 | Cc1cc(Nc2cc(N3CCN(C)CC3)nc(/C=C/c3ccccc3)n2)n[nH]1 + Nc1ncn([C@H]2C[C@H](O)[C@@H](CO)O2)c(=O)n1 [decitabine] (first compound 0.04 µM, partner dose 0.1 µM) | 71% | 92.9% | 99.8% | 95.2% | 90.3% | 87.3%
6 | COc1ccc(C2=N[C@@H](c3ccc(Cl)cc3)[C@@H](c3ccc(Cl)cc3)N2C(=O)N2CCNC(=O)C2)c(OC(C)C)c1 [Nutlin-3] + CN(NC(=O)CC(=O)NN(C)C(=S)c1ccccc1)C(=S)c1ccccc1 [STA4783] (first compound 0.1 µM, partner dose 0.006 µM) | 81.4% | 68.6% | 38.1% | 109% | 42.8% | 98%
7 | Cc1cn(-c2cc(NC(=O)c3ccc(C)c(Nc4nccc(-c5cccnc5)n4)c3)cc(C(F)(F)F)c2)cn1 [nilotinib] + O=C(O)[C@@H]1[O][Sb](=[O])([O][Sb]2(=[O])[O][C@H]([C@H](O)CO)[C@H](O)[C@H](C(=O)O)[O]2)[O][C@H]([C@H](O)CO)[C@@H]1O [stibogluconate] (first compound 0.2 µM, partner dose 2 µM) | 101% | 97% | 88.3% | 112% | 96% | 106%
8 | Cc1cn(-c2cc(NC(=O)c3ccc(C)c(Nc4nccc(-c5cccnc5)n4)c3)cc(C(F)(F)F)c2)cn1 [nilotinib] + COc1ccc(C2=N[C@@H](c3ccc(Cl)cc3)[C@@H](c3ccc(Cl)cc3)N2C(=O)N2CCNC(=O)C2)c(OC(C)C)c1 [Nutlin-3] (first compound 0.2 µM, partner dose 0.1 µM) | 106% | 90.4% | 94.3% | 83.9% | 97.4% | 107%
9 | Cn1c(=O)n(-c2ccc(C(C)(C)C#N)cc2)c2c3cc(-c4cnc5ccccc5c4)ccc3ncc21 + CC(C)(C)c1cnc(CSc2cnc(NC(=O)C3CCNCC3)s2)o1 [SNS-032] (first compound 0.004 µM, partner dose 0.01 µM) | 84% | 95.7% | 99.4% | 85.8% | 97.7% | 108%
10 | COc1ccc(C2=N[C@@H](c3ccc(Cl)cc3)[C@@H](c3ccc(Cl)cc3)N2C(=O)N2CCNC(=O)C2)c(OC(C)C)c1 [Nutlin-3] + C[C@@H](Oc1cc(-c2cnn(C3CCNCC3)c2)cnc1N)c1c(Cl)ccc(F)c1Cl [Crizotinib] (first compound 0.1 µM, partner dose 0.2 µM) | 90.1% | 86.4% | 85.4% | 96.2% | 95.8% | 106%
11 | COc1ccc(C2=N[C@@H](c3ccc(Cl)cc3)[C@@H](c3ccc(Cl)cc3)N2C(=O)N2CCNC(=O)C2)c(OC(C)C)c1 [Nutlin-3] + COC(=O)c1sccc1S(=O)(=O)Nc1ccc(Nc2ccccc2)cc1OC [GSK0660] (first compound 0.1 µM, partner dose 1 µM) | 93.5% | 104% | 102% | 84.9% | 94.1% | 105%
